The supplement of paper PMC9446081
About 220 (0.56%) of roughly 39,000 compounds showed activity. The list shows a part of the results.

tested on: Escherichia coli K-12 BW25113; assay: relative growth (OD600 normalised to plate interquartile mean) (fraction); higher = less growth inhibition, active = 0.2 or less; conditions: 50 µM; LB; incubation time: overnight (16-24 h)
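Further: static incubation at 37 °C against the wild-type strain, values averaged over two biological replicates.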

Row | SMILES | relative growth
1 | C[C@@H]1CN([C@@H](C)CO)C(=O)c2cc(-c3cccc(C(=O)N(C)C)c3)cnc2O[C@@H]1CN(C)C(=O)Cc1ccccn1 | inactive: 0.978
2 | O=C(C[C@H]1C[C@@H]2c3cc(NS(=O)(=O)c4ccc(F)cc4)ccc3O[C@@H]2[C@@H](CO)O1)NCc1ccc(Oc2ccccc2)cc1 | inactive: 1.02
3 | COc1ccc(-c2cnc3c(c2)C(=O)N([C@H](C)CO)C[C@H](C)[C@H](CN(C)S(=O)(=O)c2ccc(F)cc2)O3)cc1 | inactive: 0.997
4 | C[C@@H]1CN([C@@H](C)CO)C(=O)Cc2cc(NC(=O)Nc3ccc(C(F)(F)F)cc3)ccc2O[C@H]1CN(C)C(=O)Nc1ccc2c(c1)OCO2 | inactive: 1.02
5 | O=C(C=Cc1ccc(O)cc1)c1ccccc1 | inactive: 0.931
6 | C[C@H](CO)N1C[C@H](C)[C@H](CN(C)S(=O)(=O)c2cccs2)Oc2ccc(NC(=O)Nc3cccc4ccccc34)cc2C1=O | inactive: 0.985
7 | C[C@@H]1CN([C@@H](C)CO)C(=O)c2cc(NS(C)(=O)=O)ccc2O[C@@H](C)CCCCO[C@H]1CN(C)C(=O)Nc1ccc(C(F)(F)F)cc1 | inactive: 0.999
8 | CO[C@H]1CN(C)C(=O)c2cc(NS(=O)(=O)CC(F)(F)F)ccc2OC[C@@H](C)N(Cc2cccnc2)C[C@H]1C | inactive: 0.997
9 | C[C@H](CO)N1C[C@H](C)[C@H](CN(C)C(=O)Nc2cccc3ccccc23)Oc2c(NC(=O)c3ccc(-c4nccs4)cc3)cccc2C1=O | inactive: 1
10 | CC(C)CC#Cc1ccc2c(c1)O[C@H](CN(C)C(=O)Cc1cccnc1)[C@@H](C)CN([C@@H](C)CO)S2(=O)=O | inactive: 0.99
11 | C[C@H](O)C#Cc1cnc2c(c1)C(=O)N([C@@H](C)CO)C[C@@H](C)[C@@H](CN(C)Cc1cncnc1)O2 | inactive: 0.993
12 | CN1C(=O)Cc2cc(NS(C)(=O)=O)ccc21 | inactive: 0.981
13 | Cc1ccc(S(=O)(=O)N(C)C[C@@H]2OCCCC[C@H](C)Oc3ccc(NC(=O)C4CCCCC4)cc3C(=O)N([C@H](C)CO)C[C@@H]2C)cc1 | inactive: 0.997
14 | C[C@H]1CN([C@@H](C)CO)C(=O)CCCn2nncc2CO[C@@H]1CN(C)Cc1ccc(C(=O)Nc2ccccc2N)cc1 | inactive: 1.03
15 | COc1ccc(NC(=O)Nc2ccc3c(c2)C(=O)N([C@@H](C)CO)C[C@@H](C)[C@@H](CN(C)Cc2ccc(Cl)c(Cl)c2)OCCCC[C@H](C)O3)cc1 | inactive: 1.02
16 | C[C@@H]1CN([C@@H](C)CO)C(=O)c2cc(NS(=O)(=O)c3ccc(Cl)cc3)ccc2O[C@@H]1CN(C)Cc1ccc(-c2ccccc2)cc1 | inactive: 1
17 | CC(C)NC(=O)N(C)C[C@H]1OCCCC[C@H](C)Oc2ccc(NS(=O)(=O)c3cn(C)cn3)cc2C(=O)N([C@H](C)CO)C[C@@H]1C | inactive: 0.979
18 | O=C1OCCC=C[C@H]2O[C@@]34C=CCN(Cn5nnc6ccccc65)C(=O)[C@H]3N(CCCCCO)C(=O)[C@@H]4[C@@H]12 | inactive: 1.02
19 | C[C@@H]1CN([C@H](C)CO)C(=O)c2cc(C#CCN(C)C)cnc2O[C@H]1CN(C)C(=O)CCN1CCCCC1 | inactive: 0.983
20 | O=C1OCC=C[C@H]2O[C@@]34C=CCN(Cn5nnc6ccccc65)C(=O)[C@H]3N(CCCCCCO)C(=O)[C@@H]4[C@@H]12 | inactive: 0.971
21 | Cc1ccc(S(=O)(=O)Nc2ccc3c(c2)CC(=O)N([C@H](C)CO)C[C@@H](C)[C@H](CN(C)C(=O)NC(C)C)O3)cc1 | inactive: 1.01

Row | SMILES | relative growth
22 | C[C@@H]1CN([C@@H](C)CO)C(=O)c2cc(NS(=O)(=O)c3ccc(F)cc3)ccc2O[C@H]1CN(C)S(C)(=O)=O | inactive: 1.03
23 | C[C@H](CO)N1C[C@H](C)[C@@H](CN(C)Cc2ccc(-c3ccccc3)cc2)Oc2ccc(NC(=O)Nc3ccccc3)cc2C1=O | inactive: 0.974
24 | C[C@H]1CN([C@@H](C)CO)C(=O)c2cc(-c3ccc(F)cc3)cnc2O[C@H]1CN(C)C(=O)Cc1ccccn1 | inactive: 1.01
25 | O=C(C[C@@H]1CC[C@@H]2[C@H](COC[C@H](O)CN2C(=O)c2ccc3c(c2)OCO3)O1)NCCN1CCCC1 | inactive: 1.03
26 | Cc1ccc(S(=O)(=O)N(C)C[C@H]2Oc3ccc(NC(=O)C4CC4)cc3CC(=O)N([C@H](C)CO)C[C@@H]2C)cc1 | inactive: 0.983
27 | COc1ccc(NC(=O)N(C)C[C@@H]2Oc3c(NC(=O)Nc4cccc5ccccc45)cccc3C(=O)N([C@@H](C)CO)C[C@@H]2C)cc1 | inactive: 1.01
28 | C[C@H]1CCCCO[C@@H](CN(C)Cc2ccc(C(F)(F)F)cc2)[C@@H](C)CN([C@@H](C)CO)C(=O)c2cc(NC(=O)c3ccccc3)ccc2O1 | inactive: 1.02
29 | C[C@H]1CN([C@@H](C)CO)C(=O)Cc2cc(NS(C)(=O)=O)ccc2O[C@H]1CN(C)Cc1ccc(C(=O)Nc2ccccc2N)cc1 | inactive: 1.01
30 | O=C(C[C@@H]1C=C[C@H](NC(=O)CN2CCOCC2)[C@@H](CO)O1)NCCc1ccccc1 | inactive: 1.02
31 | C[C@@H]1CN([C@H](C)CO)S(=O)(=O)c2ccc(C#CCC3CCCC3)cc2O[C@H]1CN(C)C(=O)c1cnccn1 | inactive: 0.999
32 | O=C(C[C@H]1CC[C@H]2[C@@H](COC[C@H](O)CN2S(=O)(=O)c2ccc(Cl)cc2)O1)NCCN1CCCC1 | inactive: 0.993
33 | Cc1noc(C)c1NC(=O)N(C)C[C@@H]1Oc2c(NS(C)(=O)=O)cccc2C(=O)N([C@H](C)CO)C[C@@H]1C | inactive: 0.996
34 | C[C@H](CO)N1C[C@H](C)[C@H](CN(C)C(=O)Nc2ccc(F)cc2)Oc2c(NS(C)(=O)=O)cccc2C1=O | inactive: 1.01
35 | O=C(CN1CCOCC1)N[C@H]1CC[C@@H](CCn2cc(C3CC3)nn2)O[C@H]1CO | inactive: 1.03
36 | C[C@@H]1CN([C@@H](C)CO)C(=O)c2cccc(NC(=O)Nc3ccc4c(c3)OCO4)c2O[C@@H]1CN(C)Cc1ccc(Cl)c(Cl)c1 | inactive: 0.984
37 | CO[C@@H]1CN(C)C(=O)c2cc(NC(=O)c3ccc(F)cc3)ccc2OC[C@@H](C)N(C(=O)CN(C)C)C[C@@H]1C | inactive: 1.03
38 | C[C@H](CO)N1C[C@H](C)[C@H](CN(C)Cc2ccc(Oc3ccccc3)cc2)Oc2ccc(NC(=O)Cn3cnnn3)cc2C1=O | inactive: 1.03
39 | COc1ccc([C@H]([C@@H](O)Cc2ccccc2)N(C/C=C/[C@@H](O)c2ccccc2)[C@@H](Cc2ccccc2)C(OC)OC)cc1 | inactive: 1.01
40 | NC(=O)c1ccnc(Cl)c1 | inactive: 0.994
41 | COc1ccc(S(=O)(=O)Nc2ccc3c(c2)C(=O)N([C@H](C)CO)C[C@H](C)[C@H](CN(C)C(=O)Nc2ccc(C(F)(F)F)cc2)OCCCC[C@@H](C)O3)cc1 | inactive: 1
42 | C[C@H](CO)N1C[C@H](C)[C@H](CN(C)C(=O)Nc2ccc(C(F)(F)F)cc2)Oc2ccc(NC(=O)Nc3ccc4c(c3)OCO4)cc2CC1=O | inactive: 1.03

Row | SMILES | relative growth
43 | CN(C)CCCCNC(=O)[C@H]1C[C@H]2C(=O)N[C@@H](Cc3ccccc3)C(=O)N2[C@H]1c1cccc(OCCO)c1 | inactive: 0.991
44 | CN(C)c1cc(CN)ccn1 | inactive: 0.989
45 | C[C@H]1CN([C@@H](C)CO)C(=O)c2cc(NS(=O)(=O)c3cn(C)cn3)ccc2O[C@H]1CN(C)S(=O)(=O)c1cccs1 | inactive: 0.991
46 | COc1ccc(S(=O)(=O)N(C)C[C@@H]2OCCCC[C@@H](C)Oc3ccc(NC(=O)NC4CCCCC4)cc3C(=O)N([C@H](C)CO)C[C@@H]2C)cc1 | inactive: 1.01
47 | CC(=O)Nc1nc(C(=O)O)cs1 | inactive: 1.02
48 | CN1CCC(=C2c3ccccc3Sc3ccccc32)CC1.O=C(O)C=CC(=O)O | inactive: 0.967
49 | CC(C)NC(=O)N(C)C[C@H]1Oc2c(NS(=O)(=O)c3ccccc3)cccc2C(=O)N([C@@H](C)CO)C[C@@H]1C | inactive: 0.995
50 | CONC(=O)Nc1ccc(-c2sc3c(c2CN(C)Cc2ccccc2)c(=O)n(-c2ccccc2)c(=O)n3Cc2c(F)cccc2F)cc1 | inactive: 1.04
51 | Cc1cc(C(=O)N2CCNC(=O)C2(C)C)no1 | inactive: 1
52 | COc1cc(C=CC(N)=O)cc(OC)c1OC | inactive: 1.05
53 | O=C(NCc1ccccc1)c1cn[nH]n1 | inactive: 0.897
54 | C[C@@H]1CN([C@@H](C)CO)C(=O)c2cccc(NS(=O)(=O)c3cn(C)cn3)c2O[C@H]1CN(C)C(=O)Nc1ccccc1 | inactive: 1
55 | C[C@H]1CN([C@@H](C)CO)C(=O)c2cccc(NC(=O)Nc3ccc4c(c3)OCO4)c2O[C@@H]1CN(C)S(=O)(=O)c1cn(C)cn1 | inactive: 0.992
56 | CN(C)C(=O)C[C@H]1CC[C@@H](NC(=O)C2CCOCC2)[C@@H](CO)O1 | inactive: 1.01
57 | C[C@H]1CN([C@@H](C)CO)S(=O)(=O)c2ccc(C#Cc3ccccc3F)cc2O[C@H]1CN(C)CC1CCOCC1 | inactive: 1.03
58 | Cc1ccc(NC2=CC(=O)C[C@H](c3ccc(Cl)cc3)C2)cc1 | inactive: 1.03
59 | O=C1CCN(c2ccccc2)N1 | inactive: 0.856
60 | COc1ccc2c3c(n(c2c1)C)[C@@H](CO)N(C[C@]13CN(C1)C(=O)Nc1cccc(c1)F)C(=O)CN1CCOCC1 | inactive: 0.87
61 | C[C@@H]1CCCCO[C@@H](CN(C)Cc2ccncc2)[C@@H](C)CN([C@@H](C)CO)C(=O)c2cc(NC(=O)Nc3ccc(C(F)(F)F)cc3)ccc2O1 | inactive: 1.02
62 | C[C@H](CO)N1C[C@H](C)[C@H](CN(C)CC2CC2)OCCCC[C@H](C)Oc2ccc(NS(=O)(=O)c3ccc(Cl)cc3)cc2C1=O | inactive: 0.977
